Experimental data from the BET-seq Pho4 binding data (Le et al. 2018).
The other results are listed elsewhere or left out. The energies were worked out here from pooled read counts, against the library average; single values are noisy.

Each sequence was assayed against T1, Pho4 (S. cerevisiae) (UniProt P07270) (assay: relative binding free energy (BET-seq); higher = weaker binding). Conditions: reference: library average.
T1 sequence: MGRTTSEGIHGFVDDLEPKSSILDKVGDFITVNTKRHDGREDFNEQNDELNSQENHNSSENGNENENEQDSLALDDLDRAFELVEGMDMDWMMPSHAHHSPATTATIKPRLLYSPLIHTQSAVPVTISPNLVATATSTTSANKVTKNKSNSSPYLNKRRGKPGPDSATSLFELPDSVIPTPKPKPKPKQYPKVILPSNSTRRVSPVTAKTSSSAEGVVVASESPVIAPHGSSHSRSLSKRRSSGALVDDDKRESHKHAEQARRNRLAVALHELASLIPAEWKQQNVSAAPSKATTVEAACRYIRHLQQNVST

Sequence	relative binding free energy [kcal/mol]
TGGGTCACGTGTTTGT	0.08
GATGCCACGTGGGGTG	-0.24
TTTATCACGTGTGTAA	0.17
TAATACACGTGCGGGT	0.05
TATGGCACGTGTTCGA	-0.15
AAGTACACGTGTTATG	0.09
TTATGCACGTGCTGGT	-0.03
TCATTCACGTGTATGA	0.42
TGTGCCACGTGTGAGT	-0.07
TTGGGCACGTGTACTT	-0.06
TTAGTCACGTGATTGT	0.28
TTTCTCACGTGTTTGT	0.29
GTGGGCACGTGTATGT	0
TAAGCCACGTGGGATG	-0.06
ATTACCACGTGTGAGT	0.03
TCAGGCACGTGGATAG	-0.1
GTTACCACGTGGAGTT	0.09
GTTTTCACGTGATTAG	0.31
TAATTCACGTGATTGA	0.38
CAGTTCACGTGATGGT	0.26
AGGATCACGTGGGGAC	0.01
CATTGCACGTGATGTA	-0.01
ACAATCACGTGTTGGG	0.16
AGCGGCACGTGAGATT	0.24
CATTGCACGTGACGGG	0.16
CGTGTCACGTGTGGTA	0.08

Sequence	relative binding free energy [kcal/mol]
AAATTCACGTGGTATG	0.24
TGAGGCACGTGGGTTC	-0.09
TGGCACACGTGTTGTA	0.27
TGTATCACGTGTGTAC	0.13
TTGTTCACGTGGGCAG	0.04
GGTCTCACGTGTTTAT	0.22
GAAAGCACGTGTCGGT	0.04
GTTGACACGTGTATAG	0.12
CGGGGCACGTGGCCGT	-0.2
TTATGCACGTGAGATT	0.15
TGCGTCACGTGTAGTG	0.13
AAGGGCACGTGTTGCT	0.01
GAGGCCACGTGTCGTG	0.14
TTATTCACGTGTTGGC	0.3
CTTAGCACGTGTTTTA	-0.11
ATGTACACGTGGGTTT	-0.03
TGAGTCACGTGACTAG	0.24
GGGATCACGTGAGTTG	0.19
TCATGCACGTGTTTGA	-0.06
GGCTGCACGTGGATTT	0.07
CTTGGCACGTGTTGTG	-0.07
GGAGGCACGTGGAGGG	-0.02
TTTGCCACGTGTTACT	-0.04
TCTATCACGTGGGTGG	0
AGGAGCACGTGTATGT	-0.19
ATATGCACGTGGAGGG	-0.06

Sequence	relative binding free energy [kcal/mol]
TGCCTCACGTGAGGTT	0.37
GTAGGCACGTGGTTGT	-0.1
GGGGACACGTGGTGAG	0.03
TGTAGCACGTGGAAGA	-0.02
CTGGCCACGTGAGTGG	0.23
ATAGGCACGTGGGTAA	-0.22
TTGGTCACGTGACATG	0.08
TCAGGCACGTGGGTAC	-0.15
AGTTTCACGTGGTGGG	0.32
TGTCGCACGTGGCGGC	-0.11
GGGGCCACGTGTCTGT	-0.05
AGGCGCACGTGTCGGC	0.09
TGGGTCACGTGTGTGG	0.14
CATTTCACGTGGTATG	0.18
TAGAACACGTGTGTGC	0.04
TTAATCACGTGAGGTA	0.23
GGTTGCACGTGAAGTA	0.34
CTTTGCACGTGTGGTA	-0.03
GTGATCACGTGCTGTG	0.13
TACGACACGTGGAGGG	0
TTGGACACGTGCTGAG	-0.02
GTTCACACGTGGGTGG	-0.07
TCGGTCACGTGTCGTC	0.39
GGGAGCACGTGGCGCT	-0.16
TTGATCACGTGTATAT	0.13
GGATGCACGTGCATAG	0.09

Sequence	relative binding free energy [kcal/mol]
GTGTACACGTGTGAGC	0.16
AATGTCACGTGGATGC	0.13
CTGGGCACGTGGGAGA	-0.19
GTATCCACGTGTGTGT	0.06
TGGTTCACGTGTACTA	0.18
CCGGTCACGTGTAGGT	0.04
ATAATCACGTGGAGAT	0.06
TTCAGCACGTGGTCAT	-0.1
TTTAACACGTGATTAG	0.17
GCAGGCACGTGTTGGT	0.05
GGTTTCACGTGTGAAC	0.29
TTGGACACGTGTCTGA	0.04
AGGGACACGTGATGCG	0.12
GGGGGCACGTGGTTCC	-0.13
TCGATCACGTGGGTAG	-0.03
AAGTTCACGTGATGGT	0.35
TGGTACACGTGCGAGT	-0.04
AGTTGCACGTGTATCT	-0.02
GTGGACACGTGTTAGG	0.09
CTGTACACGTGTGTGC	0.13
GGGAGCACGTGTAAGA	0
CTCGGCACGTGGAGTT	0
TGTGACACGTGTGACA	0.1
ATTAACACGTGTATGA	-0.02
TGAGTCACGTGGCTTT	0.07
ATGTACACGTGGTTAG	0.01

Sequence	relative binding free energy [kcal/mol]
GTGTGCACGTGTAGGT	-0.02
GTGGCCACGTGTAGGT	0.05
TTCTGCACGTGTGTTA	0.07
GGAATCACGTGGCGGT	0.01
CTCTTCACGTGTTGGT	0.1
GCGTACACGTGTGGTT	0.16
ACGTGCACGTGGGGGG	-0.11
GTATTCACGTGGATTC	0.37
GGAGGCACGTGTAACG	-0.03
GTCGGCACGTGGGACG	-0.12
TGGGGCACGTGATGTT	0.12
GGTGGCACGTGCTAAT	-0.04
TTGTGCACGTGTGCAT	-0.05
GGCTACACGTGTTAGT	0.22
AGTGCCACGTGAGTTT	0.16
TCATGCACGTGGTTCG	-0.03
GTAGGCACGTGTAGGG	-0.03
TATTACACGTGGCGTG	-0.11
ACGGGCACGTGGCGGG	-0.28
GAGGGCACGTGGTTAA	-0.02
GTGCACACGTGAGGGG	0.23
TAAAGCACGTGGGGTG	-0.22
TTGGTCACGTGGGGGC	0.05
CTGGACACGTGTGAGT	0.15
TTGTGCACGTGGCGTT	-0.08
AATGGCACGTGTTTGG	-0.06

Sequence	relative binding free energy [kcal/mol]
TGGGTCACGTGATTGC	0.23
GATTGCACGTGGTTTA	-0.01
CTGGTCACGTGAGAGA	0.34
GTGGCCACGTGTTTTA	0.06
TTATTCACGTGGTGAC	0.21
ACCGTCACGTGTGGTG	0.09
TGAGGCACGTGGATGA	-0.11
GTGGCCACGTGGCGTG	-0.19
ATTAGCACGTGGCAGG	-0.05
GTAGACACGTGGGCGT	-0.14
GAGGTCACGTGCCGGT	0.15
TGATGCACGTGTCGTG	-0.02
GGGCCCACGTGAGAGG	0.25
CGTTGCACGTGATGCG	-0.01
ATCTGCACGTGTTGGC	-0.01
GATTACACGTGAGGTA	0.31
ATTGCCACGTGCAGTG	-0.13
AAGGCCACGTGGTCGT	-0.16
AGCGGCACGTGGTGGT	-0.2
GAATACACGTGTTGTT	-0.03
CGGGACACGTGAGATT	0.5
TCAAACACGTGGGATT	0.11
TTAGTCACGTGAAGTG	0.3
TTGGACACGTGTGCGC	0.04
AGGTTCACGTGATGCG	0.15
AATTGCACGTGTAGAG	-0.11

Sequence	relative binding free energy [kcal/mol]
CTATTCACGTGTTGCT	0.23
AATGTCACGTGAGTCT	0.37
TCAAGCACGTGAGGTT	0.05
TGGAACACGTGTAGGC	0.01
CGTAGCACGTGATTGA	0.18
TTGAGCACGTGCGTGG	-0.08
TAGGGCACGTGCGCCG	-0.14
AAAGACACGTGTCGGG	0.04
TGACTCACGTGTGGGA	0.15
GAATGCACGTGCTGTG	-0.09
CATGGCACGTGTTATT	-0.05
GGCTGCACGTGTAGAG	0.24
CGGATCACGTGGTGGC	0.12
GATGACACGTGGTATT	-0.07
TCGGGCACGTGGGTTG	-0.23
GGGACCACGTGGTTGT	0.01
TGTTGCACGTGGCAAA	0
TGGTACACGTGCTGAG	0.03
AGGCGCACGTGGCGGC	-0.14
ATAGGCACGTGAGAGC	0.23
TGCGTCACGTGGAATG	0.08
TATCGCACGTGGGAGA	-0.1
AAAGGCACGTGTGCTA	0.01
TGGAGCACGTGAGATT	0.28
AAGTGCACGTGGGGTT	-0.23
TTCATCACGTGGGGCG	-0.1

Sequence	relative binding free energy [kcal/mol]
GGCGACACGTGGTTGA	0.16
ACTGGCACGTGCTTGG	-0.11
ATTGTCACGTGCTGGT	0.01
AGCAACACGTGGGTTG	-0.22
ACTGTCACGTGGGAAT	0.19
TAGGGCACGTGTTCAT	-0.29
TTGTTCACGTGGGGGC	0.16
ATTGACACGTGTAAGG	0.18
TGTAGCACGTGGTCGA	-0.05
AGGGACACGTGTGTTC	0.06
AAAGTCACGTGTGAAT	0.15
GTCTGCACGTGGAGGC	0.12
ATAGTCACGTGATATA	0.26
GTCGACACGTGTGTTG	0.05
TTTTGCACGTGCGAAG	-0.07
TGCGGCACGTGAGTTT	0.13
CGCGTCACGTGGGGGC	-0.06
GGAAGCACGTGTGGGG	-0.17
GGAGTCACGTGTTAAT	0.14
GATATCACGTGTGGCT	0.12
TTTGTCACGTGACGGA	0.14
ACTGACACGTGGGGAG	-0.09
TGTCGCACGTGAGGCT	0.14
CAAGTCACGTGTGTTG	0.15
ATCGTCACGTGTGGCT	0.07
GGGTTCACGTGCGCGG	0.22

Sequence	relative binding free energy [kcal/mol]
ACGGTCACGTGAAGGT	0.34
TGTGGCACGTGCAGTC	-0.11
AAGATCACGTGTAATT	0.4
GGTGGCACGTGCATTA	-0.02
CGTGTCACGTGAGGCG	0.26
AAGGTCACGTGGGATA	-0.11
ATCAGCACGTGTATGG	0.03
TTTATCACGTGATATT	0.14
GGGGTCACGTGCACGG	0
TTGTACACGTGGGGAG	-0.01
ATCGGCACGTGTTATG	-0.07
ATATTCACGTGTTTTA	0.17
GTGTTCACGTGGTAGG	0.2
TGTTCCACGTGGTTGC	0
GTTCACACGTGTAATG	0.19
TCGAGCACGTGGTCTG	-0.15
CTTCTCACGTGTAGGG	0.26
TGTCGCACGTGCTTGG	-0.22
ACAGGCACGTGCAGGT	-0.03
GTGGGCACGTGTCGGG	0.15
AGTAGCACGTGAGGCT	0.09
AGTCTCACGTGAGCGG	0.33
